# PubChem BioAssay AID624296 (National Center for Advancing Translational Sciences (NCATS), 2012)
# Hit rate of the full screen: of about 350,000 compounds, about 9,900 (2.8%) were called active. This list was built around the results that the source calls inconclusive (neither active nor inactive); the mix of calls is not that of the screen. Calls follow the shape of the dose curve; as a rule, active = well fitted activation curve with a large enough effect; inconclusive = small, poorly fitted or top-dose-only effect; inactive = no such curve, though single readings can be large or run the other way. No potency is given beside an inconclusive call; the fits are too rough.
# Assay: A quantitative high throughput screen for small molecules that induce DNA re-replication in MCF 10a normal breast cells. Also: nearly all actives have a fitted effect of over 50% in size. As to activity, positive = re-replication: % of control where 0% means no effect.
# Details: MCF 10A DNA re-replication, Hoechst nuclear intensity, 48 h; activity, positive = re-replication: at 46.1 µM (top of the series)
# Potency is read from the fitted curve at half-maximal effect; tags tell the direction and shape of the fitted curve.
SMILES,Potency,"activity, positive = re-replication"
COc1ccc(N=Cc2cc(Cc3ccccc3Cl)cc([N+](=O)[O-])c2O)cc1OC,"inconclusive [activator, partial curve, poor fit]",–
COC(=O)c1c(NS(=O)(=O)c2cccs2)sc2c1CCCC2,–,inactive: 9.3%
NC(=O)[C@H]1CC2(CC(c3cccc(NC(=O)COc4ccc(Cl)cc4)c3)=NO2)CN1C(=O)c1ccccc1C(=O)c1ccccc1 (stereo not given in full),"inconclusive [activator, full curve, poor fit]",–
CS(=O)(=O)c1sc(C#N)c2c1C(=O)CC(c1ccccc1)C2 (stereo not given),"inconclusive [activator, partial curve, poor fit]",–
Nc1ccc(C#Cc2c(-c3ccsc3)oc3ccc(N4CCOCC4)cc23)cc1,active: 13 µM,–
COc1ccc(C(=O)CCC(=O)Nc2ccc(N3CCCCC3)cc2)cc1OC,–,inactive: 9.22%
Cc1nc(NC(=O)c2cc(-n3cnnc3)ccc2Cl)ccc1Br,"inconclusive [activator, partial curve, poor fit]",–
O=c1cc(-c2ccccc2Cl)oc2cc(O)cc(O)c12,"inconclusive [activator, partial curve, poor fit]",–
CCN(C(=O)COC(=O)c1cc(-c2ccccc2)nc2c1c(C)nn2-c1ccccc1)C1CCS(=O)(=O)C1 (stereo not given),"inconclusive [activator, single point]",–
O=S(=O)(c1ccc(SCc2ccccc2)nc1)N1CCCC1,"inconclusive [activator, single point]",–
Cc1ccc(C(=O)Nc2nc3ccccc3c(=O)s2)cc1,–,inactive: 0.447%
CCCn1c(NC(=O)c2ccc(F)cc2)nc2ccccc21,"inconclusive [activator, partial curve]",–
CC1(C)CC2(CCO1)CNC(=O)O2 (stereo not given),"inconclusive [activator, partial curve, poor fit]",–
COc1cc(/C=N/NC(=O)c2cccnc2)cc(Br)c1O,"inconclusive [activator, partial curve, poor fit]",–
CC1Cc2ccccc2N1C(=O)CN(C)CC(=O)Nc1ccc(F)cc1 (stereo not given),"inconclusive [activator, single point]",–
Cc1nn(Cc2ccc(Cl)cc2)c(C)c1NC(=O)c1cc(C(C)C)on1,"inconclusive [activator, single point]",–
O=C(/C=C/c1ccc(F)cc1)NC(=S)Nc1ccccc1C(=O)NC1CCCCC1,"inconclusive [activator, single point]",–
Cc1ccc(S(=O)(=O)N2CCN(C(=O)COC(=O)Cc3ccc(F)cc3)CC2)c(C)c1,–,inactive: -3.22%
Cc1ccc(-c2csc3nc(SCC(=O)N(C)C)n(Cc4ccccc4)c(=O)c23)cc1,"inconclusive [activator, partial curve, poor fit]",–
N#Cc1cc([N+](=O)[O-])ccc1NC(=O)CSc1n[nH]c(=O)n1C1CC1,–,inactive: 8.88%
CCOC(=O)N1CCC(NC(=O)c2oc3c(C)c(C)ccc3c2C)CC1,"inconclusive [activator, partial curve]",–
CC1(C)Cc2c(sc(NC(=O)c3ccc4ncsc4c3)c2C(N)=O)C(C)(C)N1,"inconclusive [activator, single point]",–

SMILES,Potency,"activity, positive = re-replication"
CCOC(=O)CSC1=NC(=O)/C(=C\c2ccc(OC(C)=O)cc2)S1,active: 2.59 µM,–
O=C1C2CC=CCC2C(=O)N1c1ccc(Cc2ccncc2)cc1 (stereo not given),"inconclusive [activator, partial curve, poor fit]",–
O=C(Cn1ccc2ccccc21)Nc1ccc2c(c1)OCO2,"inconclusive [activator, single point]",–
Cc1cc(OC(=O)c2c(Cl)cc(Cl)cc2Cl)nc(C)n1,"inconclusive [activator, partial curve, poor fit]",–
C=CCC1CCC/C(=N\NS(=O)(=O)c2ccc(C)cc2)C1 (stereo not given),"inconclusive [activator, full curve, poor fit]",–
Nc1n[nH]c(-c2ccccc2[N+](=O)[O-])n1,"inconclusive [activator, partial curve, poor fit]",–
CCOC(=O)c1ccc(NC(=S)N(CCCN2CCCC2)Cc2cccs2)cc1,"inconclusive [activator, single point]",–
Cc1cc(NC(=O)C(C)SCC(=O)N(C)Cc2ccccc2F)no1 (stereo not given),"inconclusive [activator, single point]",–
COc1cccc2c1O/C(=N\O)C(C(=O)Nc1cccc(Br)c1)C2 (stereo not given),"inconclusive [activator, partial curve, poor fit]",–
CN(C)/N=C/c1ccc(Sc2ccc([N+](=O)[O-])cc2[N+](=O)[O-])o1,"inconclusive [activator, single point]",–
O=C(NC1CC2CCCC(C1)N2S(=O)(=O)c1ccccc1)c1ccccc1 (stereo not given),–,inactive: 2.31%
CC1Cc2ccccc2N1S(=O)(=O)c1cnc(Cl)c(Br)c1 (stereo not given),"inconclusive [activator, single point]",–
CCCCCCCOC(=O)C[N+](C)(C)CCOC1CC2CCC1(C)C2(C)C (stereo not given),"inconclusive [activator, single point]",–
CCCCN(CCCC)c1nc(OC)nc(-n2nnc(C(C)=O)c2C)n1,"inconclusive [activator, single point]",–
C=CCn1c(C)cc(C(=O)CSc2nnc(NCc3ccccc3)s2)c1C,active: 3.66 µM,–
COc1ccccc1NC(=O)CN1CCC(n2c(C)nc3cc(F)ccc32)CC1,–,inactive: 1.63%
COc1ccc(-n2cc(CNCCc3cnc[nH]3)c(-c3cccc(F)c3)n2)cc1,"inconclusive [activator, single point]",–
CCOC(=O)COc1ccc2nsnc2c1Cl,–,inactive: 17.6%
CCc1nnc(NC(=O)c2nc(S(=O)(=O)Cc3ccccc3)ncc2Cl)s1,active: 0.82 µM,–
O=C(N/N=C/c1cc2c(cc1Cl)OCO2)c1ccc2c(c1)OCCO2,"inconclusive [activator, single point]",–
N#C/C(=N\Nc1ccc(F)cc1)C(=O)C1CC1,"inconclusive [activator, single point]",–
CN1c2ccsc2C(O)=C(C(=S)Nc2ccc(F)c(Cl)c2)S1(=O)=O,"inconclusive [activator, partial curve, poor fit]",–

SMILES,Potency,"activity, positive = re-replication"
CCOC(=O)c1c(-c2ccccc2)oc2ccc(OC)cc12,"inconclusive [activator, partial curve, poor fit]",–
Cc1cccc(Nc2ccccc2C(=O)OCC(=O)N2CCOCC2)c1C,"inconclusive [activator, full curve, poor fit]",–
CNC[C@H](CC1CCCCC1)NC[C@H](NCCC1CCCC1)[C@H](C)O,"inconclusive [activator, single point]",–
O=S(=O)(Nc1cccc(-c2ccc(N3CCOCC3)nn2)c1)c1ccc(Cl)c(Cl)c1,"inconclusive [activator, partial curve, poor fit]",–
COc1cccc(Cn2c(NCC(C)C)nc3c2c(=O)n(C)c(=O)n3C)c1,"inconclusive [activator, partial curve, poor fit]",–
COCc1cc(=O)[nH]c(Nc2nc3ccc(C)cc3o2)n1,"inconclusive [activator, single point]",–
COc1ccc(NS(=O)(=O)c2cc(NC(=O)c3ccc(=O)[nH]n3)ccc2C)cc1,"inconclusive [activator, single point]",–
CC(C)C1C(c2ccccc2)NC(c2ccccc2)CC1(O)c1ccc(F)cc1 (stereo not given),active: 16.4 µM,–
Cc1nc(SCC(=O)N2CCN(c3ccccc3)CC2)c2oc3ccccc3c2n1,"inconclusive [activator, single point]",–
CCCc1c(C)nc(N2CCN(c3ccc(F)cc3)CC2)[nH]c1=O,–,inactive: 0.843%
O=C1C(Cc2ccccc2)Nc2ncnc(N3CCCCC3)c2N1Cc1ccc(Cl)cc1 (stereo not given),"inconclusive [activator, single point]",–
CC(=O)Oc1ccccc1C(=O)NC(C)CCc1ccccc1 (stereo not given),"inconclusive [activator, partial curve, poor fit]",–
COc1cc(-c2noc(C)c2-c2ccc(N(C)C)nc2)cc(OC)c1OC,–,inconclusive: 138% [activator]
COc1cccc(NC(=O)CN(C)C(=O)/C=C/c2cn(-c3ccccc3)nc2-c2ccc(OC)c(OC)c2)c1,"inconclusive [activator, single point]",–
Cc1cc(NC(=O)c2ccc(Cl)cc2)n(CCOC(=O)c2ccc(Cl)cc2)n1,–,inactive: 4.3%
COc1ccc2cc3c(N)nn(C(=O)C4CCC(C(C)(C)C)CC4)c3nc2c1 (stereo not given),"inconclusive [activator, full curve]",–
Cc1cccc(NC(=O)CNC(=O)Cn2ncc(Cl)c(Cl)c2=O)c1C,active: 5.17 µM,–
O=C(COc1ccc(Cl)cc1)Nc1ccc2[nH]ncc2c1,"inconclusive [activator, single point]",–
O=C(COC(=O)Cc1ccccc1F)Nc1cccc(S(=O)(=O)NC2=NCCCCC2)c1,–,inactive: 9.2%
O=c1[nH]c(-c2ccccn2)nc(C(F)(F)F)c1Br,active: 18.4 µM,–
CC(C)c1ccc(S(=O)(=O)NCc2ccc3c(c2)OCO3)cc1,"inconclusive [activator, full curve, poor fit]",–
